Among all 130,000 compounds or so, about 1,900 (1.5%) were called active. This list was built around the results that the source calls inconclusive (neither active nor inactive); the mix of calls is not that of the screen. Calls follow the shape of the dose curve; as a rule, active = well fitted cell-killing curve with a large enough effect; inconclusive = small, poorly fitted or top-dose-only effect; inactive = no such curve, though single readings can be large or run the other way. A potency beside an inconclusive call is a rough fit, not a confirmed value.
assay: qHTS Screen for Compounds that Selectively Target Cancer Cells with p53 Mutations: Cytotoxicity of p53ts Cells at the Nonpermissive Temperature; settings: H1299-p53A138V viability at 39C, ATP luminescence, 24 h; activity change, negative = cell killing: at 46.1 µM (top of the series); also: nearly all actives have a fitted effect of over 55% in size
% is scaled to controls: 0 for no effect and ±100 for the full control effect; potency is read from the fitted curve at half-maximal effect; tags tell the direction and shape of the fitted curve.

| Compound | Potency | activity change, negative = cell killing |
| --- | --- | --- |
| Cc1cc(-n2c(SCc3ccccc3F)nc3[nH]ncc3c2=O)ccc1Cl | active: 15.8 µM | – |
| Cc1ccc(O)c(NC(=O)c2ccco2)c1 | inconclusive: 31.6 µM [cytotoxic, single point] | – |
| CC(C)CCNC(=O)c1c[nH]c2ccc(S(=O)(=O)Nc3cccc(C(F)(F)F)c3)cc2c1=O | inconclusive: 0.0316 µM [cytotoxic, full curve, poor fit] | – |
| COc1ccc(C(CNC(=O)c2oc3ccccc3c2C)N2CCCCC2)cc1 (stereo not given) | inconclusive: 31.6 µM [cytotoxic, single point] | – |
| COc1ccccc1C(=O)Nc1ccc2c(c1)nc1n2CCSC1 | active: 3.16 µM | – |
| CCOC(=O)c1c(C)c(C(=O)NCCOC)c(C)n1CC | – | inactive: 8.08% |
| CC(C)(C)N1C(=O)[C@H]2[C@H]3[C@H](O)[C@H](O)C/C(=N/OC[C@@H](O)COCc4ccco4)[C@H]3CC[C@@H]2C1=O | – | inactive: 1.6% [at 9.22 µM] |
| Cc1ccc(-c2nn3c(=O)c(C)nnc3s2)cc1 | inconclusive: 31.6 µM [cytotoxic, single point] | – |
| CS(=O)(=O)c1ncc(Cl)c(C(=O)N(Cc2ccc(Cl)cc2)Cc2ccco2)n1 | active: 3.16 µM | – |
| Cc1ccc(-n2c(=O)c3oc4ccccc4c3n(Cc3ccccc3)c2=O)cc1C | – | inactive: -12% |
| CCOc1ccc2[nH]c(=O)c(CN(CCO)C(=O)c3ccc(Br)cc3)cc2c1 | inconclusive: 31.6 µM [cytotoxic, single point] | – |
| Clc1cc(Cl)c(OCc2nc(-c3ccccn3)no2)cc1Cl | inconclusive: 15.8 µM [cytotoxic, single point] | – |
| CCN(CC)S(=O)(=O)c1ccc(NC(=O)[C@H](CSCc2ccccc2)N2Cc3ccccc3C2=O)cc1 | inconclusive: 12.6 µM [cytotoxic, partial curve] | – |
| COC(=O)c1ccc(C(=O)OC)c(NC(=O)CN2CCN(c3ccccc3OC)CC2)c1 | inconclusive: 25.1 µM [cytotoxic, single point] | – |
| Cc1cc(N2CCCCC2)n2ncc(-c3ccccc3)c2n1 | inconclusive: 10 µM [cytotoxic, partial curve] | – |
| O=C(Nc1ccc(C(F)(F)F)cc1)C1CCC(CNS(=O)(=O)c2cccc3nsnc23)CC1 (stereo not given) | inconclusive: 10 µM [cytotoxic, partial curve] | – |
| c1ccc(OCc2nc3ccccc3[nH]2)cc1 | inconclusive: 12.6 µM [cytotoxic, partial curve] | – |
| CCc1ccc(C2C(C(=O)Nc3ccccc3)=C(C)Nc3c(C(=O)Nc4ccc(C)cc4)cnn32)cc1 (stereo not given) | inconclusive: 1.26 µM [cytotoxic, single point] | – |
| CCN(CC)c1ccc2c(Cl)c(Br)c(=O)oc2c1 | inconclusive: 10 µM [cytotoxic, single point] | – |
| COc1ccccc1-c1nnc(Nc2nc3c(OC)cccc3s2)o1 | inconclusive: 2.51 µM [cytotoxic, full curve, poor fit] | – |
| CCc1nn2c(=O)cc(COC(=O)c3ccccc3NC(=O)COc3ccccc3C)nc2s1 | – | inactive: -14.7% |
| CCC(CO)[n+]1c(C)cc(/C=C2\Sc3ccccc3N2Cc2ccccc2)cc1C (stereo not given) | inconclusive: 15.8 µM [cytotoxic, partial curve, poor fit] | – |
| CCCOc1ccc(C(=O)Nc2cccc(-c3nc4ccccc4[nH]3)c2)cc1 | inconclusive: 22.4 µM [cytotoxic, single point] | – |
| CCCc1noc2c1/C(=N\O)CC(CC(C)SCC)C2 (stereo not given) | inconclusive: 25.1 µM [cytotoxic, single point] | – |

| Compound | Potency | activity change, negative = cell killing |
| --- | --- | --- |
| COc1cccc(-c2oc3ccccc3c(=O)c2O)c1 | inconclusive: 7.94 µM [cytotoxic, partial curve] | – |
| Clc1ccc2c(c1)C1OCCC1C(c1ccco1)N2 (stereo not given) | active: 10 µM | – |
| Cc1ccc(NC(=O)c2sc3ccccc3c2Cl)cc1 | inconclusive: 3.98 µM [cytotoxic, partial curve] | – |
| COc1ccc(NC(=O)c2ccco2)cc1N | inconclusive: 15.8 µM [cytotoxic, partial curve, poor fit] | – |
| O=C(Nc1cccc(C(=O)N2CCCCC2)c1)c1nsc2ccccc12 | active: 10 µM | – |
| CCOc1ccccc1NC(=O)c1c(C)cc(C)nc1SCC(=O)c1cccc(OC)c1 | inconclusive: 31.6 µM [cytotoxic, single point] | – |
| CC(C)C(=O)NC(c1ccco1)c1ccc2cccnc2c1O (stereo not given) | active: 3.98 µM | – |
| COc1ccccc1NC(=O)CSc1nnc(-c2ccccc2)o1 | inconclusive: 12.6 µM [cytotoxic, partial curve] | – |
| Cc1cccc(Nc2nnc(-n3nc(C)cc3C)c3ccccc23)c1 | inconclusive: 15.8 µM [cytotoxic, partial curve] | – |
| COc1ccc2c(CNCc3ccc(Cl)cc3)c(C(=O)O)n(Cc3ccccc3C)c2c1 | – | inactive: -22.1% |
| Cc1ccc(-c2cc(N)n3nc(-c4ccc(C)cc4)cc3n2)cc1 | – | inactive: -15.1% |
| COc1ccc(NC(=O)c2ccc(-c3ccc(-c4noc(C)n4)cc3C)cc2)cc1OCCN(C)C | active: 7.94 µM | – |
| CCCCOc1c(Cl)cc(C(=O)N(Cc2ccc(C)o2)C2CCS(=O)(=O)C2)cc1Cl (stereo not given) | inconclusive: 11.2 µM [cytotoxic, partial curve] | – |
| COC(=O)c1ccc(-c2cc(C(=O)O)c3cc4c(cc3n2)OCCO4)cc1 | inconclusive: 12.6 µM [cytotoxic, single point] | – |
| O=C(NCCc1cn2ccccc2n1)c1ccc(Br)o1 | – | inactive: 18.4% |
| COc1ccc(CCNCc2c(C(=O)O)c(C)n(Cc3ccccc3C)c2C)c(OC)c1 | – | inconclusive: -31.6% [cytotoxic] |
| CC(=O)Nc1cccc2c1C(=O)N(c1cccc(C)c1)C2=O | – | inactive: 12.1% |
| CCOc1ccccc1N(C)C(=O)Cn1cnc2sc(C)c(S(=O)(=O)N3CCC(C)CC3)c2c1=O | – | inactive: 24.7% |
| O=C(Nc1cccc(Cl)c1)c1c(NC(=O)C(F)(F)F)sc2c1CCCC2 | inconclusive: 1.26 µM [cytotoxic, partial curve] | – |
| CCC(Sc1nnc(C)n2c1cc1occc12)C(=O)Nc1ccccc1F (stereo not given) | inconclusive: 25.1 µM [cytotoxic, single point] | – |
| N#CCCCSc1nnnn1-c1cccc(Cl)c1 | – | inactive: 5.83% |
| Cc1nn(CCCC(=O)Nc2ccccc2C(F)(F)F)c(=O)c2c1sc1ccccc12 | inconclusive: 20 µM [cytotoxic, partial curve, poor fit] | – |
| CN(C)S(=O)(=O)c1ccc2nc(NC(=O)c3cccnc3)sc2c1 | inconclusive: 12.6 µM [cytotoxic, single point] | – |
| Cc1cccc(C(=O)N2CCc3cc(CNC(=O)CCc4ccccc4)ccc32)c1 | – | inactive: -11.3% |

| Compound | Potency | activity change, negative = cell killing |
| --- | --- | --- |
| O=C(Nc1ccccn1)c1ccc2ccccc2n1 | active: 15.8 µM | – |
| CN(C)C(=O)c1ccc(-c2ccc3ncnc(NC4CCNCC4)c3c2)cc1 | – | inactive: 1.65% |
| Cc1ccc(C2CCN(C(=O)Nc3ccc(C)c(C)c3)C2)cc1 (stereo not given) | inconclusive: 0.501 µM [cytotoxic, partial curve, poor fit] | – |
| O=C(Nc1ccc(Cl)c(-c2nc3cc(Cl)ccc3o2)c1)c1cc2ccccc2o1 | inconclusive: 12.6 µM [cytotoxic, single point] | – |
| O=c1c(-c2cc(F)cc(F)c2)nc2cnc(N3CCNCC3)nc2n1CCc1ccccc1 | inconclusive: 20 µM [cytotoxic, single point] | – |
| CCCC(=O)Nc1cccc(-c2cn3ccsc3n2)c1 | inconclusive: 20 µM [cytotoxic, partial curve] | – |
| COC(=O)CCN(C(=O)C1CCN(S(=O)(=O)c2c(C)noc2/C=C/c2ccccc2F)CC1)c1ccccc1 | inconclusive: 0.0631 µM [cytotoxic, full curve, poor fit] | – |
| COc1cc(NC(=O)CC(c2cccs2)N2Cc3ccccc3C2=O)cc(OC)c1OC (stereo not given) | inconclusive: 0.0158 µM [cytotoxic, full curve, poor fit] | – |
| CCc1ccc(NC(=O)Cn2c(=O)n(-c3cc(C)cc(C)c3)c(=O)c3oc4ccccc4c32)cc1 | inconclusive: 1.58 µM [cytotoxic, full curve] | – |
| O=C(O)c1ccccc1N[C@H](c1ccccc1)c1ccc2cccnc2c1O | inconclusive: 3.16 µM [cytotoxic, single point] | – |
| CC(=O)c1ccc(NC(=O)Cn2nc(C(F)(F)F)c3c2CCCC3)cc1 | – | inactive: -6.79% |
| Cc1cccc(N2CCN(C(=O)CCSCc3ccccc3F)CC2)c1C | inconclusive: 10 µM [cytotoxic, partial curve, poor fit] | – |
| Cc1ncoc1C(=O)Nc1ccc2c(c1)OCCO2 | inconclusive: 12.6 µM [cytotoxic, partial curve] | – |
| COc1cccc(-c2cc(=O)c3cc(O)ccc3o2)c1 | active: 12.6 µM | – |
| Cc1ccc(OCC(O)Cn2c(=N)n(CCN3CCCCC3)c3ccccc32)cc1 (stereo not given) | active: 12.6 µM | – |
| CCCn1nnnc1NC(=O)CSc1ccc(Cl)cc1 | – | inactive: -28.1% |
| CCN1CCN(c2cc(C)c3cc(NC(=O)c4cc(Cl)ccc4OC)ccc3n2)CC1 | inconclusive: 0.631 µM [cytotoxic, single point] | – |
| C=CCNc1nc2c3ccccc3n(C(C)=O)c2s1 | – | inactive: -21% |
| O=C(O)c1cc(-c2ccc(C(F)(F)F)cc2)nc2n[nH]c(-c3ccccc3)c12 | active: 10 µM | – |
| Cc1nc2sc(C(c3cccs3)N3CCOCC3)c(O)n2n1 (stereo not given) | inconclusive: 10 µM [cytotoxic, partial curve] | – |
| CCOC(=O)c1ccccc1NC(=O)CSc1nnc(COc2ccccc2)n1CC | – | inactive: -5.1% |
| COc1ccccc1NC(=O)N1CCC(c2nc3cc(C)c(C)cc3[nH]2)CC1 | inconclusive: 12.6 µM [cytotoxic, partial curve, poor fit] | – |

Source: PubChem BioAssay AID902 (National Center for Advancing Translational Sciences (NCATS), 2007)
